Reference: ChEMBL document CHEMBL4888484, “Replenishing the malaria drug discovery pipeline: Screening and hit evaluation of the MMV Hit Generation Library 1 (HGL1) against asexual blood stage Plasmodium falciparum ,using a nano luciferase reporter read-out” (2022)
The campaign covered roughly 150,000 compounds. About 540 (0.36%) showed an effect of 50% or more. The list shows a part of the results.

Test system: Plasmodium falciparum
Assay: Primary screen in NF54 nanoGlo assay, in single point, at 2uM, 72h; a lower Z score goes with more inhibition
Format: functional, Erythrocyte
Details: timepoint 72 hour

| SMILES | % Inhibition [%] | Z score |
| --- | --- | --- |
| CC1CN(c2nccn(C(F)F)c2=O)CC(C)[S+]1[O-] (configuration not stated) | -5 | 0.91 |
| CN1CCOC[C@H]1C(=O)OC1CCCCCC1 | -3 | 0.28 |
| CCn1ncc(CNC(=O)N[C@H]2CCCc3nn(C)cc32)n1 | 4 | -0.72 |
| O=C(Cc1nnc(-c2ccc3ncccc3c2)o1)Nc1cccc(C(F)(F)F)c1 | 9 | -0.92 |
| CC(=O)Nc1nc(C)c(S(=O)(=O)N2[C@@H]3CC[C@H]2CNC(=O)C3)s1 | -12 | 1.95 |
| O=C(Cc1ccccc1Cl)N[C@H]1CCN(c2nccn3cnnc23)C1 | -18 | 2.3 |
| CC(C)c1ccc(C#N)c(N(C)Cc2nncn2C)n1 | -7 | 0.87 |
| Cn1ccc(CN2CCN(Cc3ccc4c(c3)CCO4)CC2)cc1=O | 4 | -0.79 |
| CCCCOc1ccc(CN(C)C)cc1CN(C)C | -13 | 1.71 |
| CCc1csc(N2CC(c3nc(C)cc(C)n3)C2)n1 | 2 | -0.28 |
| COc1cnc(CN(C)CCN2CCCCC2=O)cc1O | -11 | 1.42 |
| CCc1cccc(N2C(=O)c3cc(C(=O)OC)nn3C[C@@]2(C)C(=O)NC2CCC(C)CC2)c1 (some centres not stated) | 6 | -0.7 |
| CN(CCN1CCOC1=O)Cc1cnoc1-c1ccc(Cl)cc1 | -16 | 3.1 |
| Cc1ccccc1C(=O)N(CC(=O)N(Cc1ccc(F)cc1)Cc1sccc1C)C(C)C | 2 | -0.27 |
| COCCN1C[C@@H](Cc2cc(Cl)ccc2OC)CC1=O | -20 | 1.74 |
| O=C(NCCc1cccc(-c2ccccc2)c1)N1C2CCC1CC(O)C2 (configuration not stated) | -3 | 0.56 |
| O=C(NCCn1ncccc1=O)c1ccc(OCc2nc(-c3ccco3)cs2)cc1 | -4 | 0.81 |
| CCCC[C@H](CC)C(=O)Nc1ccccc1C | 36 | -0.94 |
| Cc1cc(N2CCC[C@@H]2CO)c2ccccc2n1 | -6 | 0.57 |
| CCc1ccc(NC(=O)[C@H]2CCCN(c3nnc(N4CCCC4=O)s3)C2)cc1 | -14 | 2.53 |
| Cc1ccc(OS(=O)(=O)c2cccc(Cl)c2Cl)c(-c2nc3ncccc3o2)c1 | -20 | 2.05 |
| Cc1ccc(F)c(S(=O)(=O)N2CCC[C@H](Cn3cncn3)C2)c1 | 2 | -0.37 |

| SMILES | % Inhibition [%] | Z score |
| --- | --- | --- |
| C=CCCN(C)c1nnnn1CCC(=O)N1CCCCC1 | -5 | 0.82 |
| CCc1nnc(CN(C)Cc2ccnn2C)o1 | -9 | 0.94 |
| COCCCN/C(=N\S(C)(=O)=O)Nc1ccc(OC)c(OC)c1 | -16 | 1.93 |
| CC(C)n1[nH]c(=O)c2c(-c3ccc(C(=O)O)cc3)c3sc(=O)[nH]c3nc21 | -19 | 2.19 |
| C/C(=C\c1ccco1)CN[C@H]1CCCc2nc(-c3cccnc3)ncc21 | -5 | 0.78 |
| C[C@H](OC(=O)c1cccn1C)c1ccccn1 | -2 | 0.3 |
| Cc1csc(-n2c(C)cc(C(=O)CN3CCCCC3)c2C)n1 | 4 | -0.58 |
| O=C(Cc1c[nH]c2cc(Cl)ccc12)NCCN1CCNCC1 | -2 | 0.32 |
| c1ccc(-c2nc3c([nH]2)CCc2nonc2-3)cc1 | -36 | 4.18 |
| CC(C)N(C)CC1CCN(C(=O)c2cc(-c3ccccc3)c(N3CCOCC3)s2)CC1 | 41 | -5.52 |
| Cc1ccc2c(c1)C[C@@H](C(=O)NCc1snnc1C)N2 | 0 | -0.03 |
| CS(=O)(=O)C[C@H]1CCN(C(=O)c2c[nH]c(C(F)(F)F)c2)C1 | -4 | 0.89 |
| CC(C)(C)C(=O)CNC(=O)c1ccncc1F | -3 | 0.39 |
| O=C(c1ccncc1)N1CCC(F)(C(=O)N2CCOCC2)CC1 | -13 | 1.65 |
| CNC(=O)CN1CCN(c2ccc(C#N)c(N3CCN(CC(=O)NC)CC3)n2)CC1 | -12 | 2.21 |
| Cc1cc(C)c(C(=O)N2CCC[C@H](Nc3ccc4c(c3)OCCO4)C2)c(=O)[nH]1 | -9 | 1.25 |
| COc1cncnc1NC(=O)NC[C@H]1[C@H](c2ccccc2)C1(F)F | -5 | 0.93 |
| CCN(C)S(=O)(=O)N[C@@H]1CCOC[C@@H]1Nc1ccnc(C)n1 | 8 | -0.98 |
| CCCc1nc(N2Cc3cnc(CC(C)C)nc3C2)no1 | -5 | 0.92 |
| CCN(C(C)=O)c1nc(CNc2ccccc2[C@H](C)O)cs1 | -25 | 2.23 |
| O=C(O)c1ccc(Cl)c(NC(=O)c2cc3c(s2)CCCC3)c1 | 3 | -0.59 |
| CC(C)CC[C@H](N)C(=O)Nc1cccc(N)c1 | -2 | 0.44 |

| SMILES | % Inhibition [%] | Z score |
| --- | --- | --- |
| COCCN(CC1CC1)C(=O)c1cncnc1C | -10 | 0.96 |
| C[C@H]1CCN(C(=O)Nc2cccc3c2OCC(=O)N3)C[C@@H](C)C1 | 10 | -1.32 |
| Cc1ccc(-c2nnn(C)n2)cc1NC(=O)NC1CCOCC1 | 1 | -0.24 |
| CC[C@H](C)NC(=O)c1ccc(CN2C(=O)CCn3nc(-c4ccccc4)cc32)cc1 | 22 | -2.51 |
| CCOc1ncc(NC(=O)c2cccc3ccccc23)c(OCC)n1 | -10 | 1.92 |
| CC[C@@](NC(=O)Cc1cccs1)(C(N)=O)C(C)C | -10 | 0.98 |
| CC1(C)COCCN1C(=O)COC(F)F | -10 | 1.87 |
| O=C(NC1CCN(c2nnc3ccccn23)CC1)c1ccccn1 | 32 | -3.66 |
| CCc1cnc(CNC(=O)[C@@H](OC)C2CC2)s1 | 1 | -0.14 |
| CC(=O)N1CCN(Cc2cccc(-c3cnc4c(c3)CCCO4)c2)CC1 | -17 | 2.18 |
| CC1(C)NC(=O)CC[C@@H]1NC1CC(c2cccc(F)c2)C1 (some centres not stated) | 31 | -4.44 |
| O=C(N[C@@H](C(=O)O)c1ccc(Cl)c(F)c1)c1ccnn1C1CCCC1 | 9 | -1.46 |
| CC(C)(C)C(=O)NCCNC(=O)c1ccco1 | -45 | 5.24 |
| Cc1ncsc1CN1CCc2nn(CC3CC3)c(=O)n2CC1 | -10 | 1.12 |
| Cc1cc(C)n(-c2ccc3nnc(CCCC(=O)Nc4ccncc4)n3n2)n1 | -6 | 0.91 |
| CC(C)c1ccc(C(=O)N2C[C@H]3CC[C@@H](C2)N(Cc2ccccc2)C3)c(=O)[nH]1 | -10 | 1.76 |
| COCCN(C)S(=O)(=O)[C@H]1CCCN(C(=O)c2ccns2)C1 | 1 | -0.12 |
| COc1ccc(CCC(=O)N2CC(S(=O)(=O)CC(C)C)C2)cc1OCc1ccccc1 | -12 | 1.54 |
| Cn1cnc2cc(C(=O)OCC3CCOC3c3ccccc3)cnc21 (configuration not stated) | -6 | 0.94 |
| C[C@]1(c2nc(C3(c4ccccc4)CCC3)no2)CCC(=O)NC1 | -1 | 0.16 |
| CCCN1CCCN(C(=O)c2nnn(-c3cccc4cccnc34)c2C)CC1=O | -6 | 0.87 |
| COCCCN1C(=O)CC[C@@H]2CN(C(=O)NC3CCCCC3)CC[C@@H]21 | 0 | 0 |

| SMILES | % Inhibition [%] | Z score |
| --- | --- | --- |
| C[C@H]1CN(CCC(=O)Nc2sc3c(c2C#N)CCCCC3)CCO1 | -16 | 2.54 |
| CC(NC(=O)OC(C)(C)C)C1COCCC1NCc1cc(F)cc(Br)c1 (configuration not stated) | -8 | 0.78 |
| O=C(NC1CCCCCC1C(=O)O)c1ccc(Br)o1 (configuration not stated) | -10 | 0.98 |
| O=C(O)c1nccnc1C(=O)N1CCCCC1 | 14 | -2.24 |
| CN(Cc1cnccn1)c1ccccn1 | -11 | 2.08 |
| Cc1cc(C#N)cc(NS(=O)(=O)c2ccc3c(c2)C[C@H](C)O3)n1 | 1 | -0.15 |
| CCN1CCN(C(=O)[C@@H](c2ccccc2)n2c(Cc3ccc(F)cc3)nc3cc(C)c(C)cc32)CC1 | -3 | 0.46 |
| COC(=O)c1c(Cl)c(C2CC2)nc2c1c(C)nn2-c1ccccc1F | -45 | 5.26 |
| c1ccc2c(c1)n[n+]1c3ccccc3[n-]n21 | -8 | 1.56 |
| CCc1ncnc(NC2(CO)CCCC2)c1F | -16 | 2.05 |
| O=C(NCC1(OCCO)CCCC1)C1CCOCC1 | -8 | 1.13 |
| CN(C)c1ccnc(NC(=O)N2CCC[C@@H]2CC2CCCC2)n1 | -8 | 0.86 |
| O=C(COc1ccccc1F)N1CC(COc2ccc(F)cc2)C1 | 2 | -0.28 |
| O=C(CN(C[C@H]1CCCO1)C(=O)c1ccc(Cl)cc1)Nc1nc(-c2ccccc2)cn1-c1ccccc1 | -2 | 0.35 |
| Cc1[nH]ccc1C(=O)Nc1cccc(NC(=O)N2CCCCCC2)c1 | -5 | 0.85 |
| Cn1cc(S(=O)(=O)NC[C@H](O)c2ccc3c(c2)CCO3)cn1 | -17 | 2.63 |
| CC(C)CN(CC(F)(F)F)C(=O)c1cc(-c2ccncc2)nn1C | 2 | -0.24 |
| Cn1cncc1-c1noc(-c2cc(S(N)(=O)=O)ccc2N2CCOCC2)n1 | 1 | -0.09 |
| CCCCN(Cc1ccccc1)c1ccc(C(=O)O)cc1NC(=O)c1ccc(Cl)cc1 | -1 | 0.16 |
| CCC#CCN1CCC(CNC(=O)c2cccnc2C)CC1 | 3 | -0.35 |
